# Some of the results follow. The list includes weakly bound sequences.
# Biological target: T1, MBP-FoxP3dN (UniProt Q99JB6)
# T1 sequence: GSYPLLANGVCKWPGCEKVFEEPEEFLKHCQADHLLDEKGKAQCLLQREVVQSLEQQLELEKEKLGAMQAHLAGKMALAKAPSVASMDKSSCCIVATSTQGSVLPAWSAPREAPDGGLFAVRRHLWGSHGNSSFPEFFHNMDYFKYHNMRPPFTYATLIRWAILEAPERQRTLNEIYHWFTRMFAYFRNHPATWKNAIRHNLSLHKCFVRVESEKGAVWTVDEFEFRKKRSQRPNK
# Assay: PD-seq (MBP pull-down with sequencing)
# Conditions: 20 mM Tris-HCl pH 7.5, 100 mM NaCl, 1.5 mM MgCl2, 0.4 uM protein, 0.1 uM dsDNA library, 30 min, room temperature, amylose pull-down; high values mean tight binding; double strand, one strand shown
row,Sequence,binding signal (RPM ratio (pull-down/input))
1,GATGATTGTTCTCCCAGCTGATGAATTGCAAGCCTCGAGTAAACAAATTTTCCTAATCTTTCTGTTCAAGCGCCATCTAC,0.869
2,GATGATTGTTCTCCCAGCTGATGAATTGCACAGTTCGAGTAAACAAATTTTCCTAATCTTTCTGTTCAAGCGCCATCTAC,0.937
3,GATGATTGTTCTCCCAGCTGATGAATTCGCTTACTCGAGTAAACAAATTTTCCTAATCTTTCTGTTCAAGCGCCATCTAC,3.27
4,GATGATTGTTCTCCCAGCTGATGAATTACAAGGCTCGAGTAAACAAATTTTCCTAATCTTTCTGTTCAAGCGCCATCTAC,0.469
5,GATGATTGTTCTCCCAGCTGATGAATTGAGATGATCGAGTAAACAAATTTTCCTAATCTTTCTGTTCAAGCGCCATCTAC,0.508
6,GATGATTGTTCTCCCAGCTGATGAATTAGGCAGATCGAGTAAACAAATTTTCCTAATCTTTCTGTTCAAGCGCCATCTAC,0.432
7,GATGATTGTTCTCCCAGCTGATGAATTTCGACCATCGAGTAAACAAATTTTCCTAATCTTTCTGTTCAAGCGCCATCTAC,0.59
8,GATGATTGTTCTCCCAGCTGATGAATTTTTCAAATCGAGTAAACAAATTTTCCTAATCTTTCTGTTCAAGCGCCATCTAC,0.31
9,GATGATTGTTCTCCCAGCTGATGAATTCCGATTATCGAGTAAACAAATTTTCCTAATCTTTCTGTTCAAGCGCCATCTAC,1.35
10,GATGATTGTTCTCCCAGCTGATGAATTCTCTCAGTCGAGTAAACAAATTTTCCTAATCTTTCTGTTCAAGCGCCATCTAC,0.198
11,GATGATTGTTCTCCCAGCTGATGAATTGAGCGTCTCGAGTAAACAAATTTTCCTAATCTTTCTGTTCAAGCGCCATCTAC,3.37
12,GATGATTGTTCTCCCAGCTGATGAATTCTGGACATCGAGTAAACAAATTTTCCTAATCTTTCTGTTCAAGCGCCATCTAC,0.357
13,GATGATTGTTCTCCCAGCTGATGAATTCAATGCTTCGAGTAAACAAATTTTCCTAATCTTTCTGTTCAAGCGCCATCTAC,0.976
14,GATGATTGTTCTCCCAGCTGATGAATTTGGTGTGTCGAGTAAACAAATTTTCCTAATCTTTCTGTTCAAGCGCCATCTAC,3.91
15,GATGATTGTTCTCCCAGCTGATGAATTTTAACTGTCGAGTAAACAAATTTTCCTAATCTTTCTGTTCAAGCGCCATCTAC,0.348
16,GATGATTGTTCTCCCAGCTGATGAATTTGAGTATTCGAGTAAACAAATTTTCCTAATCTTTCTGTTCAAGCGCCATCTAC,1.53
17,GATGATTGTTCTCCCAGCTGATGAATTTACTTCATCGAGTAAACAAATTTTCCTAATCTTTCTGTTCAAGCGCCATCTAC,0.703
18,GATGATTGTTCTCCCAGCTGATGAATTATTGACGTCGAGTAAACAAATTTTCCTAATCTTTCTGTTCAAGCGCCATCTAC,1.47

# Reference: PMC12820563
